In the supplement of paper PMC12889115:
The other results are listed elsewhere or left out. Cut-off read from the data, not from the text of the source: active = 25% or less and inactive = the rest. Many values rest on one well or one pass, so single values are uncertain.

Tested on: Salmonella enterica serovar Typhimurium SL1344
Assay: intramacrophage bacterial GFP load (SAFIRE), percent of DMSO control (% of DMSO); higher = more intracellular bacteria (less inhibition)
Settings: 25 µM; system: infected RAW 264.7 macrophages
Protocol: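 Secondary screen of the 553 primary hits at 25 µM. (i) S. Typhimurium SL1344 grown in Mueller-Hinton broth with 0.5 µg/mL polymyxin B, OD600 read after 18 h. (ii) SAFIRE assay: RAW 264.7 macrophages infected with S. Typhimurium sifB::gfp (MOI 30); compound added 2 h post-infection; cells fixed at 18 h; GFP-positive pixel fraction per macrophage imaged by confocal microscopy and expressed as % of DMSO control.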
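Note: compounds tested were the hits of an earlier 50 µM broth growth screen of a drug-like diversity library run with polymyxin B.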

Intramacrophage bacterial GFP load, inactive:
COc1ccc(-n2ncc(C(C)NS(=O)(=O)c3cccc4nsnc34)c2C)cc1 (stereo not given) 177
Cc1cccc(S(=O)(=O)N2CCCC(CO)(Cc3cccc(Cl)c3)C2)c1 (stereo not given) 41.6
CCOC(=O)N1CCC(N2Cc3cc(C)ccc3OC(c3ccsc3)C2)CC1 (stereo not given) 56.1
COCCCN1C(=O)CC(CC(=O)N2CC3(C)CC2CC(C)(C)C3)(c2ccccc2Cl)C1=O (stereo not given) 45.8
CCCCN(C)C(=O)c1sc2ncnc(N3CCCCCCC3)c2c1C 58.2
O=C(Cc1ccc2c(c1)OCO2)N(Cc1ccncc1)Cc1cccc(OCCc2ccc(F)cc2)c1 122
Cc1cc(Cl)c2oc(C(=O)N(CCO)Cc3ccccc3)c(C)c2c1 81.3
C=CCN(CC=C)c1ccc(-c2nc(-c3cccc(OC)c3OC)no2)cn1 193
COC(=O)c1ccc(-c2nc(CN(C)C3CCCc4ccccc43)c(C)o2)cc1 (stereo not given) 73.6
Cc1cc(C(=O)N2CCc3c([nH]c4ccccc34)C2c2ccc(F)cc2)no1 (stereo not given) 104
COc1ccc(CN(Cc2ccncc2)C(=O)c2ccc(-c3cccc(F)c3)cc2)cc1OC1CCCC1 95.3
Cc1nonc1CN(C)C(=O)C1CCCN(c2nc(-c3ccccc3)nc3c2CCC3)C1 (stereo not given) 113
O=C(Nc1cccc(-c2ccc(F)cc2)c1)C1CCCN(C(=O)c2ccoc2)C1 (stereo not given) 108
Cc1ccnn1CC(=O)N(Cc1ccncc1)Cc1cccc(OCCc2ccc(F)cc2)c1 58.7
Cc1ccccc1C(NC1CCN(c2ccc(NC(=O)c3ccccc3F)cc2)CC1)c1ccncc1 (stereo not given) 252
CCOC(=O)C1(Cc2ccc(F)cc2)CCCN(C(=O)c2cc3ccccc3cn2)C1 (stereo not given) 57.2
CN(Cc1ccccc1)C1(C(=O)NC2CCS(=O)(=O)C2)Cc2ccccc2C1 (stereo not given) 123
COc1ccc(OCc2cc(C(=O)NC(CO)C(C)C)no2)c2ccccc12 (stereo not given) 74.8
Cc1c[nH]c(CN(C)C(=O)C2(N3C[C@@H](C)O[C@@H](C)C3)Cc3ccccc3C2)n1 88.8
CC(C)/C=C/C(=O)NCCN1Cc2ccccc2OC(c2ccccc2F)C1 (stereo not given) 26
CSc1ccccc1C(=O)NCc1c(C)ncc2c1CCN(C(=O)c1cc3ccccc3o1)C2 59.5

Intramacrophage bacterial GFP load, active:
O=C(c1coc(COc2cccc(F)c2)n1)N1CC[C@@H]2CCCC[C@H]2C1 8.5
Cc1ccc(OCCN(C)C(=O)C2CC23CCN(Cc2coc4ccccc4c2=O)CC3)cc1 (stereo not given) 20.7
CCOC(=O)C1(Cc2ccccc2Cl)CCN(Cc2nccn2CC)CC1 19.2
CCn1ccnc1CN(C)C(=O)CC(c1ccccc1)c1ccc(Cl)cc1 (stereo not given) 18.9
Cc1c(C(=O)NCCCc2ccncc2)sc2ncnc(N3CCCCCCC3)c12 23.4
CC(=O)Nc1ccnn1C1CCN(Cc2ccc(-c3ccccc3)cc2)CC1 12.6
CCCCN(C)C(=O)c1nc2ccccn2c1CN(C)Cc1ccc(CC)cc1 12
COc1cccc(CN(C)Cc2nc(-c3ccc(C(F)(F)F)cc3)oc2C)c1 5.29
CCCCn1c(CN2CCCC(C(C)=O)C2)cnc1S(=O)(=O)CCCC(C)C (stereo not given) 22.1
